Among the data in the supplement of paper PMC11022549 are MIC values, retold here.

Common to all, as to experiment: CLSI broth microdilution in RPMI 1640, up to 16 µg/mL, 48 h at 37 °C; full growth inhibition.
Background: Broth dilution looks for growth in wells or tubes with falling amounts of substance.

Compound in one test: C[C@@H](c1ncncc1F)[C@](O)(Cn1cncn1)c1ccc(F)cc1F [voriconazole]
Compound in another test: CCC(C)n1ncn(-c2ccc(N3CCN(c4ccc(OCC5COC(Cn6cncn6)(c6ccc(Cl)cc6Cl)O5)cc4)CC3)cc2)c1=O [itraconazole]
Compound in the next test: CC(C)(C)C(O)(CCc1ccc(Cl)cc1)Cn1cncn1 [tebuconazole]
Compound in a further test: CC[C@@H]([C@H](C)O)n1ncn(-c2ccc(N3CCN(c4ccc(OC[C@@H]5CO[C@@](Cn6cncn6)(c6ccc(F)cc6F)C5)cc4)CC3)cc2)c1=O [posaconazole]

MIC (lowest dose with no growth) of environmental A. fumigatus isolates, CLSI broth microdilution in RPMI 1640, up to 16 µg/mL, 48 h at 37 °C, mean of two or three runs; higher = less susceptible. No active / inactive call per row; the paper counts tebuconazole above 3, itraconazole and voriconazole above 2 and posaconazole above 0.25 µg/mL as resistant. The source writes 17 for growth at the top dose; shown as '>' 16, and '>=' 16 where runs were 16 and above. cyp51A changes are as printed. Isolates are numbered anew.

As a reminder, the MIC is the least concentration at which growth counts as inhibited.

For “Aspergillus fumigatus isolate 96 (cyp51A: WT)”, the MIC was 0.5 µg/mL with voriconazole, 1 µg/mL with itraconazole, 2 µg/mL with tebuconazole and 0.5 µg/mL with posaconazole.

Regarding “Aspergillus fumigatus isolate 42 (cyp51A: TR34/Y46F/L98H/V172M/T248N/E255D/K427E)”, the MIC with voriconazole was 4 µg/mL; with itraconazole it was more than 16 µg/mL; with tebuconazole it was more than 16 µg/mL; with posaconazole, 1 µg/mL.

For “Aspergillus fumigatus isolate 14 (cyp51A: TR34/Y46F/L98H/V172M/T248N/E255D/K427E)”, the MIC with voriconazole was 4 µg/mL; with itraconazole it was 16 µg/mL; with tebuconazole, more than 16 µg/mL; in the test with posaconazole it was 1 µg/mL.

In the case of “Aspergillus fumigatus isolate 86 (cyp51A: Y46F/V172M/T248N/E255D/K427E/L464I)”, the MIC with voriconazole was 1 µg/mL; with itraconazole, 1.5 µg/mL; in the test with tebuconazole, 4 µg/mL; with posaconazole, 0.75 µg/mL.

“Aspergillus fumigatus isolate 39 (cyp51A: TR34/Y46F/L98H/V172M/T248N/E255D/K427E)”: the MIC in the test with voriconazole amounted to 3 µg/mL; with itraconazole, 8 µg/mL; with tebuconazole, 12 µg/mL; with posaconazole, 0.75 µg/mL.

As for “Aspergillus fumigatus isolate 1 (cyp51A: TR34/Y46F/L98H/V172M/T248N/E255D/K427E)”, the MIC in the test with voriconazole was found to be 4 µg/mL; in the test with itraconazole it was 16 µg/mL; with tebuconazole, 16 µg/mL; in the test with posaconazole, 1 µg/mL.

On to “Aspergillus fumigatus isolate 62 (cyp51A: Y46F/V172M/T248N/E255D/K427E)”, for which the MIC in the test with voriconazole was found to be 0.375 µg/mL; in the test with itraconazole, 1 µg/mL; with tebuconazole, 1 µg/mL; in the test with posaconazole, 0.5 µg/mL.

In the case of “Aspergillus fumigatus isolate 36 (cyp51A: Y46F/V172M/T248N/E255D/K427E)”, the MIC was found to be 0.5 µg/mL in the test with voriconazole, 1.5 µg/mL with itraconazole, 2 µg/mL with tebuconazole and 0.5 µg/mL with posaconazole.

Consider “Aspergillus fumigatus isolate 10 (cyp51A: Y46F/V172M/T248N/E255D/K427E)”, for which the MIC with voriconazole is 0.375 µg/mL; with itraconazole, 1.5 µg/mL; with tebuconazole it was 2 µg/mL; with posaconazole, 0.375 µg/mL.

As for “Aspergillus fumigatus isolate 59 (cyp51A: TR34/Y46F/L98H/V172M/T248N/E255D/K427E)”, the MIC with voriconazole is 4 µg/mL; with itraconazole, more than 16 µg/mL; with tebuconazole, 16 µg/mL; with posaconazole it was 1 µg/mL.

Regarding “Aspergillus fumigatus isolate 78 (cyp51A: Y46F/V172M/T248N/E255D/K427E)”, the MIC was determined as 0.5 µg/mL in the test with voriconazole, 2 µg/mL with itraconazole, 2 µg/mL with tebuconazole and 0.5 µg/mL in the test with posaconazole.

For the test system “Aspergillus fumigatus isolate 2 (cyp51A: Y46F/V172M/T248N/E255D/K427E)”, the MIC in the test with voriconazole worked out at 1 µg/mL; with itraconazole it was 2 µg/mL; with tebuconazole, 4 µg/mL; in the test with posaconazole it was 1 µg/mL.

As for “Aspergillus fumigatus isolate 5 (cyp51A: TR46/Y46F/Y121F/V172M/T248N/E255D/T289A/K427E)”, the MIC with voriconazole is not below 16 µg/mL; with itraconazole, 1.66 µg/mL; in the test with tebuconazole, 13.3 µg/mL; with posaconazole, 0.83 µg/mL.

On to “Aspergillus fumigatus isolate 56 (cyp51A: WT)”, for which the MIC with voriconazole was found to be 2 µg/mL; with itraconazole, 4 µg/mL; with tebuconazole, 16 µg/mL; with posaconazole, 1 µg/mL.

Consider “Aspergillus fumigatus isolate 99 (cyp51A: T248N/E255D)”, for which the MIC with voriconazole amounted to 0.5 µg/mL; with itraconazole, 1 µg/mL; with tebuconazole, 1.5 µg/mL; with posaconazole, 0.5 µg/mL.

On to “Aspergillus fumigatus isolate 43 (cyp51A: T248N/E255D)”, for which the MIC is 0.375 µg/mL in the test with voriconazole, 1.5 µg/mL in the test with itraconazole, 2 µg/mL with tebuconazole and 0.5 µg/mL in the test with posaconazole.

With “Aspergillus fumigatus isolate 41 (cyp51A: TR34/Y46F/L98H/V172M/T248N/E255D/K427E)”, the MIC with voriconazole was 4 µg/mL; in the test with itraconazole, not below 16 µg/mL; in the test with tebuconazole it was not below 16 µg/mL; in the test with posaconazole, 1 µg/mL.

Take “Aspergillus fumigatus isolate 90 (cyp51A: WT)”: the MIC in the test with voriconazole is 1 µg/mL; with itraconazole it was 2 µg/mL; in the test with tebuconazole, 8 µg/mL; with posaconazole it was 0.75 µg/mL.

For the test system “Aspergillus fumigatus isolate 12 (cyp51A: Y46F/V172M/T248N/E255D/K427E)”, the MIC with voriconazole turned out to be 1 µg/mL; in the test with itraconazole it was 1.5 µg/mL; with tebuconazole, 4 µg/mL; in the test with posaconazole, 0.5 µg/mL.

Regarding “Aspergillus fumigatus isolate 92 (cyp51A: Y46F/V172M/T248N/E255D/K427E/L464I)”, the MIC was 1 µg/mL with voriconazole, 1 µg/mL with itraconazole, 4 µg/mL in the test with tebuconazole and 0.75 µg/mL in the test with posaconazole.

Turning to “Aspergillus fumigatus isolate 33 (cyp51A: Y46F/V172M/T248N/E255D/K427E/L464I)”, the MIC turned out to be 1 µg/mL in the test with voriconazole, 1.5 µg/mL in the test with itraconazole, 4 µg/mL in the test with tebuconazole and 0.5 µg/mL with posaconazole.

With “Aspergillus fumigatus isolate 52 (cyp51A: TR46/Y46F/Y121F/V172M/T248N/E255D/T289A/K427E)”, the MIC with voriconazole was more than 16 µg/mL; with itraconazole it was 1.5 µg/mL; with tebuconazole, more than 16 µg/mL; with posaconazole, 1 µg/mL.

On to “Aspergillus fumigatus isolate 8 (cyp51A: Y46F/V172M/I242V/T248N/E255D/K427E)”, for which the MIC with voriconazole was found to be 0.75 µg/mL; with itraconazole it was 2 µg/mL; in the test with tebuconazole, 4 µg/mL; with posaconazole it was 0.75 µg/mL.

As for “Aspergillus fumigatus isolate 40 (cyp51A: TR46/Y46F/Y121F/V172M/T248N/E255D/T289A/K427E)”, the MIC with voriconazole is more than 16 µg/mL; in the test with itraconazole, 1 µg/mL; with tebuconazole it was 16 µg/mL; with posaconazole, 0.5 µg/mL.

As for “Aspergillus fumigatus isolate 13 (cyp51A: T248N/E255D)”, the minimal inhibitory concentration (MIC) in the test with voriconazole came to 0.5 µg/mL; with itraconazole, 1 µg/mL; with tebuconazole, 2 µg/mL; with posaconazole it was 0.5 µg/mL.

With “Aspergillus fumigatus isolate 30 (cyp51A: T248N/E255D)”, the MIC was 0.5 µg/mL with voriconazole, 2 µg/mL with itraconazole, 2 µg/mL with tebuconazole and 0.5 µg/mL with posaconazole.

On to “Aspergillus fumigatus isolate 98 (cyp51A: Y46F/V172M/T248N/E255D/K427E)”, for which the MIC with voriconazole is 1.5 µg/mL; with itraconazole, 3 µg/mL; with tebuconazole, 6 µg/mL; with posaconazole it was 0.75 µg/mL.

“Aspergillus fumigatus isolate 77 (cyp51A: TR34/Y46F/L98H/V172M/T248N/E255D/K427E)”: the MIC stood at 4 µg/mL in the test with voriconazole, 16 µg/mL in the test with itraconazole, 16 µg/mL in the test with tebuconazole and 1 µg/mL with posaconazole.

With “Aspergillus fumigatus isolate 54 (cyp51A: Y46F/V172M/T248N/E255D/K427E)”, the MIC with voriconazole came to 2 µg/mL; with itraconazole it was 4 µg/mL; with tebuconazole, 8 µg/mL; in the test with posaconazole it was 1 µg/mL.

Take “Aspergillus fumigatus isolate 53 (cyp51A: Y46F/V172M/T248N/E255D/K427E/L464I)”: the MIC in the test with voriconazole was 0.5 µg/mL; with itraconazole, 1.5 µg/mL; in the test with tebuconazole, 4 µg/mL; in the test with posaconazole it was 0.75 µg/mL.

Consider “Aspergillus fumigatus isolate 48 (cyp51A: TR34/Y46F/L98H/V172M/T248N/E255D/K427E)”, for which the MIC worked out at 3.33 µg/mL with voriconazole, 5.33 µg/mL with itraconazole, 13.3 µg/mL with tebuconazole and 1 µg/mL with posaconazole.

Regarding “Aspergillus fumigatus isolate 27 (cyp51A: T248N/E255D)”, the MIC in the test with voriconazole was 0.5 µg/mL; with itraconazole, 1 µg/mL; in the test with tebuconazole, 2 µg/mL; with posaconazole it was 0.5 µg/mL.

Take “Aspergillus fumigatus isolate 63 (cyp51A: Y46F/V172M/T248N/E255D/K427E)”: the MIC with voriconazole was 1 µg/mL; with itraconazole, 1.5 µg/mL; in the test with tebuconazole, 6 µg/mL; in the test with posaconazole, 0.5 µg/mL.

Take “Aspergillus fumigatus isolate 100 (cyp51A: T248N/E255D)”: the MIC with voriconazole was found to be 0.5 µg/mL; with itraconazole, 1 µg/mL; in the test with tebuconazole it was 2 µg/mL; with posaconazole, 0.5 µg/mL.

“Aspergillus fumigatus isolate 46 (cyp51A: TR46/Y46F/Y121F/V172M/T248N/E255D/T289A/K427E)”: the MIC with voriconazole is not below 16 µg/mL; with itraconazole, 1.5 µg/mL; in the test with tebuconazole, not below 16 µg/mL; with posaconazole, 1 µg/mL.

Regarding “Aspergillus fumigatus isolate 75 (cyp51A: A9T/Y46F/V172M/T248N/E255D/K427E)”, the MIC stood at 0.5 µg/mL in the test with voriconazole, 1 µg/mL in the test with itraconazole, 1.5 µg/mL with tebuconazole and 0.5 µg/mL with posaconazole.

As for “Aspergillus fumigatus isolate 29 (cyp51A: WT)”, the MIC was 0.5 µg/mL in the test with voriconazole, 1.5 µg/mL with itraconazole, 2 µg/mL with tebuconazole and 0.5 µg/mL with posaconazole.
